{
  "source": "patent US20060142251A1",
  "about": "“Anti-microbial agents derived from methionine sulfoximine analogues” (priority 2002, published 2006)",
  "origin": "cited, not measured here",
  "molecular_target": "mycobacterial glutamine synthetase (MbGS) (Mycobacterium tuberculosis, UniProt P9WN39)",
  "sequence (P9WN39 2-478 limits assumed)": "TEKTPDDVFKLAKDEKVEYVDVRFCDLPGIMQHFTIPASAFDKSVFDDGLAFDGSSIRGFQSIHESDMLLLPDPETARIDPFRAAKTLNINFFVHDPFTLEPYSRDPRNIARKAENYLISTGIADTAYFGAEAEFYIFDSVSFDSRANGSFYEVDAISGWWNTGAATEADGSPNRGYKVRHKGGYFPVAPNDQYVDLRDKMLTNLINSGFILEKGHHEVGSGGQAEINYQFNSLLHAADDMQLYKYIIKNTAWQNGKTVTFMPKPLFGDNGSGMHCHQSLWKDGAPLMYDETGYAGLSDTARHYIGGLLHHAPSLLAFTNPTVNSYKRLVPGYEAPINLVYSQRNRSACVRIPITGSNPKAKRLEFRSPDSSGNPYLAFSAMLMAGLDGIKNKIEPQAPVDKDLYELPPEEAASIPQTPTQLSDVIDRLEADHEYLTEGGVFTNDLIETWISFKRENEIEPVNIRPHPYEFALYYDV",
  "conditions": "cited from earlier work",
  "data": [
    {"molecule": "CS(=N)(=O)CC[C@H](N)C(=O)O", "note": "(stereo partly drawn) [MSO, L-methionine-SR-sulfoximine]", "values": [
      {"measurement": "greater sensitivity to MSO of bacterial GS compared with mammalian GS", "value": 100, "unit": "fold"}
    ]}
  ]
}
